32 sequences from article PMC12820563 can be followed below.

The list shows a part of the results. The list includes weakly bound sequences.

The target of this assay is T1, MBP-FoxP3dN (UniProt Q99JB6).
T1 sequence: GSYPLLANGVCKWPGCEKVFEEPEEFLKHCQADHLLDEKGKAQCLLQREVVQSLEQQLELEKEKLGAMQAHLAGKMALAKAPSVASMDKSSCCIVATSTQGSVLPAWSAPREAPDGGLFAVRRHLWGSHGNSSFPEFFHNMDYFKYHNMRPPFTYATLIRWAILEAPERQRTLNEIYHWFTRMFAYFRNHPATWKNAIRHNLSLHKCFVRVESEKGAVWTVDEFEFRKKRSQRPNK
In words: PD-seq (MBP pull-down with sequencing). Particulars: 20 mM Tris-HCl pH 7.5, 100 mM NaCl, 1.5 mM MgCl2, 0.4 uM protein, 0.1 uM dsDNA library, 30 min, room temperature, amylose pull-down; high values mean tight binding; double strand, one strand shown.
Take “GATGATTGTTCTCCCAGCTGATGAATTCTATAAGTCGAGTAAACAAATTTTCCTAATCTTTCTGTTCAAGCGCCATCTAC”: the binding signal (RPM ratio (pull-down/input)) amounted to 0.287.

Consider “GATGATTGTTCTCCCAGCTGATGAATTTTCTGTATCGAGTAAACAAATTTTCCTAATCTTTCTGTTCAAGCGCCATCTAC”, for which the binding signal (RPM ratio (pull-down/input)) is 0.456.

As to “GATGATTGTTCTCCCAGCTGATGAATTTCGGCTGTCGAGTAAACAAATTTTCCTAATCTTTCTGTTCAAGCGCCATCTAC”, the binding signal (RPM ratio (pull-down/input)) stood at 0.375.

As for “GATGATTGTTCTCCCAGCTGATGAATTCTCCACCTCGAGTAAACAAATTTTCCTAATCTTTCTGTTCAAGCGCCATCTAC”, the binding signal (RPM ratio (pull-down/input)) turned out to be 0.226.

Consider “GATGATTGTTCTCCCAGCTGATGAATTGGCCTGATCGAGTAAACAAATTTTCCTAATCTTTCTGTTCAAGCGCCATCTAC”, for which the binding signal (RPM ratio (pull-down/input)) is 0.316.

As to “GATGATTGTTCTCCCAGCTGATGAATTTGGTACGTCGAGTAAACAAATTTTCCTAATCTTTCTGTTCAAGCGCCATCTAC”, the binding signal (RPM ratio (pull-down/input)) came to 0.73.

For “GATGATTGTTCTCCCAGCTGATGAATTTCCTTGTTCGAGTAAACAAATTTTCCTAATCTTTCTGTTCAAGCGCCATCTAC”, the binding signal (RPM ratio (pull-down/input)) is 0.417.

For “GATGATTGTTCTCCCAGCTGATGAATTATCCCGGTCGAGTAAACAAATTTTCCTAATCTTTCTGTTCAAGCGCCATCTAC”, the binding signal (RPM ratio (pull-down/input)) was 0.208.

“GATGATTGTTCTCCCAGCTGATGAATTTTCACTCTCGAGTAAACAAATTTTCCTAATCTTTCTGTTCAAGCGCCATCTAC”: the binding signal (RPM ratio (pull-down/input)) was 0.317.

“GATGATTGTTCTCCCAGCTGATGAATTTGGCCTGTCGAGTAAACAAATTTTCCTAATCTTTCTGTTCAAGCGCCATCTAC”: the binding signal (RPM ratio (pull-down/input)) was determined as 4.23.

With “GATGATTGTTCTCCCAGCTGATGAATTGAGAGTTTCGAGTAAACAAATTTTCCTAATCTTTCTGTTCAAGCGCCATCTAC”, the binding signal (RPM ratio (pull-down/input)) amounted to 1.

“GATGATTGTTCTCCCAGCTGATGAATTAACTCTATCGAGTAAACAAATTTTCCTAATCTTTCTGTTCAAGCGCCATCTAC”: the binding signal (RPM ratio (pull-down/input)) came to 0.363.

On to “GATGATTGTTCTCCCAGCTGATGAATTATGAAGCTCGAGTAAACAAATTTTCCTAATCTTTCTGTTCAAGCGCCATCTAC”, for which the binding signal (RPM ratio (pull-down/input)) is 0.35.

Regarding “GATGATTGTTCTCCCAGCTGATGAATTCTAAATCTCGAGTAAACAAATTTTCCTAATCTTTCTGTTCAAGCGCCATCTAC”, the binding signal (RPM ratio (pull-down/input)) was 0.283.

As for “GATGATTGTTCTCCCAGCTGATGAATTAATGCACTCGAGTAAACAAATTTTCCTAATCTTTCTGTTCAAGCGCCATCTAC”, the binding signal (RPM ratio (pull-down/input)) came out at 2.87.

Turning to “GATGATTGTTCTCCCAGCTGATGAATTAAGAGGCTCGAGTAAACAAATTTTCCTAATCTTTCTGTTCAAGCGCCATCTAC”, the binding signal (RPM ratio (pull-down/input)) is 0.443.

For the sequence “GATGATTGTTCTCCCAGCTGATGAATTAACTTATTCGAGTAAACAAATTTTCCTAATCTTTCTGTTCAAGCGCCATCTAC”, the binding signal (RPM ratio (pull-down/input)) stood at 0.531.

For the sequence “GATGATTGTTCTCCCAGCTGATGAATTTCGTACTTCGAGTAAACAAATTTTCCTAATCTTTCTGTTCAAGCGCCATCTAC”, the binding signal (RPM ratio (pull-down/input)) is 0.487.

Turning to “GATGATTGTTCTCCCAGCTGATGAATTCTAGCGATCGAGTAAACAAATTTTCCTAATCTTTCTGTTCAAGCGCCATCTAC”, the binding signal (RPM ratio (pull-down/input)) was found to be 0.465.

Turning to “GATGATTGTTCTCCCAGCTGATGAATTACAGACGTCGAGTAAACAAATTTTCCTAATCTTTCTGTTCAAGCGCCATCTAC”, the binding signal (RPM ratio (pull-down/input)) was 0.361.

Take “GATGATTGTTCTCCCAGCTGATGAATTTCCGTCCTCGAGTAAACAAATTTTCCTAATCTTTCTGTTCAAGCGCCATCTAC”: the binding signal (RPM ratio (pull-down/input)) turned out to be 0.344.

For the sequence “GATGATTGTTCTCCCAGCTGATGAATTGGCGATGTCGAGTAAACAAATTTTCCTAATCTTTCTGTTCAAGCGCCATCTAC”, the binding signal (RPM ratio (pull-down/input)) was found to be 0.531.

As for “GATGATTGTTCTCCCAGCTGATGAATTTCGGCATTCGAGTAAACAAATTTTCCTAATCTTTCTGTTCAAGCGCCATCTAC”, the binding signal (RPM ratio (pull-down/input)) is 5.76.

With “GATGATTGTTCTCCCAGCTGATGAATTACGAAAATCGAGTAAACAAATTTTCCTAATCTTTCTGTTCAAGCGCCATCTAC”, the binding signal (RPM ratio (pull-down/input)) stood at 0.209.

Turning to “GATGATTGTTCTCCCAGCTGATGAATTCTTTTCTTCGAGTAAACAAATTTTCCTAATCTTTCTGTTCAAGCGCCATCTAC”, the binding signal (RPM ratio (pull-down/input)) is 0.38.

Consider “GATGATTGTTCTCCCAGCTGATGAATTTGGGAAGTCGAGTAAACAAATTTTCCTAATCTTTCTGTTCAAGCGCCATCTAC”, for which the binding signal (RPM ratio (pull-down/input)) is 0.212.

Regarding “GATGATTGTTCTCCCAGCTGATGAATTCTGGATCTCGAGTAAACAAATTTTCCTAATCTTTCTGTTCAAGCGCCATCTAC”, the binding signal (RPM ratio (pull-down/input)) stood at 0.276.

As for “GATGATTGTTCTCCCAGCTGATGAATTCAACCTCTCGAGTAAACAAATTTTCCTAATCTTTCTGTTCAAGCGCCATCTAC”, the binding signal (RPM ratio (pull-down/input)) was found to be 0.388.

With “GATGATTGTTCTCCCAGCTGATGAATTTCTAGAATCGAGTAAACAAATTTTCCTAATCTTTCTGTTCAAGCGCCATCTAC”, the binding signal (RPM ratio (pull-down/input)) was determined as 0.163.

Consider “GATGATTGTTCTCCCAGCTGATGAATTGCTGCAGTCGAGTAAACAAATTTTCCTAATCTTTCTGTTCAAGCGCCATCTAC”, for which the binding signal (RPM ratio (pull-down/input)) is 0.911.

Turning to “GATGATTGTTCTCCCAGCTGATGAATTTCATCCATCGAGTAAACAAATTTTCCTAATCTTTCTGTTCAAGCGCCATCTAC”, the binding signal (RPM ratio (pull-down/input)) was 0.429.

On to “GATGATTGTTCTCCCAGCTGATGAATTACGCTGATCGAGTAAACAAATTTTCCTAATCTTTCTGTTCAAGCGCCATCTAC”, for which the binding signal (RPM ratio (pull-down/input)) came out at 0.516.
